# Paper PMC9911399, “Two distinct binding modes provide the RNA-binding protein RbFox with extraordinary sequence specificity”
# Positions count from the first letter of the chain named. The list shows a part of the results.
# T1: RBFOX1 RRM RbFoxmut (Fox-RRM*) (Homo sapiens, UniProt Q9NWB1 109-208, R118D;E147R;N151S;E152T)
# T1 sequence: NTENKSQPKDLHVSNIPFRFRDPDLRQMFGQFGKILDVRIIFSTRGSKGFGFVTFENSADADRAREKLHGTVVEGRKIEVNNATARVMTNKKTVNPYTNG
# B1: AAGGGCU (DNA:RNA)
# RNA: GGGAGACCGGAAUUCAGAUUGUCCAAGGGCUUUAAAUCCCGUCGUAGCCACCA
# DNA 1: CAATCTGAATTCCGGTCTCCC
# DNA 2: TGGTGGCTACGACGGGATT
# B2: CGUCCAA (DNA:RNA)
# RNA: GGGAGACCGGAAUUCAGAUUGUCCCGUCCAAUUAAAUCCCGUCGUAGCCACCA
# DNA 1: CAATCTGAATTCCGGTCTCCC
# DNA 2: TGGTGGCTACGACGGGATT
# B3: CUGGAAC (DNA:RNA)
# RNA: B1 RNA with A25C, A26U, G29A, C30A, U31C
# DNA 1: CAATCTGAATTCCGGTCTCCC
# DNA 2: TGGTGGCTACGACGGGATT
# B4: UUUUUUG (DNA:RNA)
# RNA: B2 RNA with C25U, G26U, C28U, C29U, A30U, A31G
# DNA 1: CAATCTGAATTCCGGTCTCCC
# DNA 2: TGGTGGCTACGACGGGATT
# B5: GCGCACU (DNA:RNA)
# RNA: B1 RNA with A25G, A26C, G28C, G29A
# DNA 1: CAATCTGAATTCCGGTCTCCC
# DNA 2: TGGTGGCTACGACGGGATT
# B6: CAACCAU (DNA:RNA)
# RNA: B2 RNA with G26A, U27A, A31U
# DNA 1: CAATCTGAATTCCGGTCTCCC
# DNA 2: TGGTGGCTACGACGGGATT
# B7: GCAUUUG (DNA:RNA)
# RNA: GGGAGACCGGAAUUCAGAUUGUCCGCAUUUGUUAAAUCCCGUCGUAGCCACCA
# DNA 1: CAATCTGAATTCCGGTCTCCC
# DNA 2: TGGTGGCTACGACGGGATT
# B8: GAACCUU (DNA:RNA)
# RNA: B7 RNA with C26A, U28C, U29C, G31U
# DNA 1: CAATCTGAATTCCGGTCTCCC
# DNA 2: TGGTGGCTACGACGGGATT
# B9: ACUUAAG (DNA:RNA)
# RNA: B7 RNA with G25A, A27U, U29A, U30A
# DNA 1: CAATCTGAATTCCGGTCTCCC
# DNA 2: TGGTGGCTACGACGGGATT
# B10: AGCCUGC (DNA:RNA)
# RNA: B2 RNA with C25A, U27C, C29U, A30G, A31C
# DNA 1: CAATCTGAATTCCGGTCTCCC
# DNA 2: TGGTGGCTACGACGGGATT
# B11: AUAUCCG (DNA:RNA)
# RNA: B7 RNA with G25A, C26U, U29C, U30C
# DNA 1: CAATCTGAATTCCGGTCTCCC
# DNA 2: TGGTGGCTACGACGGGATT
# B12: UAGGUAA (DNA:RNA)
# RNA: B1 RNA with A25U, G29U, C30A, U31A
# DNA 1: CAATCTGAATTCCGGTCTCCC
# DNA 2: TGGTGGCTACGACGGGATT
# B13: AGUACCC (DNA:RNA)
# RNA: B2 RNA with C25A, C28A, A30C, A31C
# DNA 1: CAATCTGAATTCCGGTCTCCC
# DNA 2: TGGTGGCTACGACGGGATT
# B14: AAAUGCA (DNA:RNA)
# RNA: B1 RNA with G27A, G28U, U31A
# DNA 1: CAATCTGAATTCCGGTCTCCC
# DNA 2: TGGTGGCTACGACGGGATT
# B15: AGCAUUC (DNA:RNA)
# RNA: B7 RNA with G25A, C26G, A27C, U28A, G31C
# DNA 1: CAATCTGAATTCCGGTCTCCC
# DNA 2: TGGTGGCTACGACGGGATT
# B16: UCCCGUC (DNA:RNA)
# RNA: B7 RNA with G25U, A27C, U28C, U29G, G31C
# DNA 1: CAATCTGAATTCCGGTCTCCC
# DNA 2: TGGTGGCTACGACGGGATT
# B17: CCUGGUU (DNA:RNA)
# RNA: B1 RNA with A25C, A26C, G27U, C30U
# DNA 1: CAATCTGAATTCCGGTCTCCC
# DNA 2: TGGTGGCTACGACGGGATT
# B18: GCGCCAG (DNA:RNA)
# RNA: B2 RNA with C25G, G26C, U27G, A31G
# DNA 1: CAATCTGAATTCCGGTCTCCC
# DNA 2: TGGTGGCTACGACGGGATT
# B19: GCGUGGC (DNA:RNA)
# RNA: B7 RNA with A27G, U29G, U30G, G31C
# DNA 1: CAATCTGAATTCCGGTCTCCC
# DNA 2: TGGTGGCTACGACGGGATT
# B20: ACAUCCA (DNA:RNA)
# RNA: B7 RNA with G25A, U29C, U30C, G31A
# DNA 1: CAATCTGAATTCCGGTCTCCC
# DNA 2: TGGTGGCTACGACGGGATT
# Biological target: T1, RBFOX1 RRM RbFoxmut (Fox-RRM*)
# Experiment: EMSA; HiTS-Eq, 1 nM pool, 10 min; buffer printed only for the single-RNA assays: 10 mM Tris pH 7.5, 150 mM NaCl, 3.4 mM EDTA, 0.001% NP-40, 30 C
# Settings: tags: His6 N-terminal (pET28a); label: 5' 32P
# Outline: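 Relative association constants, normalised to the cognate motif, were derived by comparing read counts of each RNA species with those of the control reaction. The RNA sequenced was the free fraction, separated by 8% native PAGE after a 10 min equilibration in 50 µL of 1 nM 5′-radiolabelled RNA (7 randomized nucleotides) with increasing concentrations of purified wild-type or mutant RbFox RRM.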
row,Binder,binding signal
1,B1,0.0699 KA relative to UGCAUGU
2,B2,0.0913 KA relative to UGCAUGU
3,B3,0.0803 KA relative to UGCAUGU
4,B4,0.0953 KA relative to UGCAUGU
5,B5,0.087 KA relative to UGCAUGU
6,B6,0.0957 KA relative to UGCAUGU
7,B7,0.138 KA relative to UGCAUGU
8,B8,0.119 KA relative to UGCAUGU
9,B9,0.174 KA relative to UGCAUGU
10,B10,0.0804 KA relative to UGCAUGU
11,B11,0.0989 KA relative to UGCAUGU
12,B12,0.0984 KA relative to UGCAUGU
13,B13,0.0811 KA relative to UGCAUGU
14,B14,0.155 KA relative to UGCAUGU
15,B15,0.0738 KA relative to UGCAUGU
16,B16,0.0849 KA relative to UGCAUGU
17,B17,0.0981 KA relative to UGCAUGU
18,B18,0.0856 KA relative to UGCAUGU
19,B19,0.143 KA relative to UGCAUGU
20,B20,0.0957 KA relative to UGCAUGU
